Source: PubChem BioAssay AID624296 (National Center for Advancing Translational Sciences (NCATS), 2012)
The campaign covered roughly 350,000 compounds. About 9,900 (2.8%) were called active. This list was built around the results that the source calls inconclusive (neither active nor inactive); the mix of calls is not that of the screen. Calls follow the shape of the dose curve; as a rule, active = well fitted activation curve with a large enough effect; inconclusive = small, poorly fitted or top-dose-only effect; inactive = no such curve, though single readings can be large or run the other way. No potency is given beside an inconclusive call; the fits are too rough.
Potency is read from the fitted curve at half-maximal effect; tags tell the direction and shape of the fitted curve.

Test: A quantitative high throughput screen for small molecules that induce DNA re-replication in MCF 10a normal breast cells. Also: nearly all actives have a fitted effect of over 50% in size. As to activity, positive = re-replication: % of control where 0% means no effect.
Details: MCF 10A DNA re-replication, Hoechst nuclear intensity, 48 h; activity, positive = re-replication: at 46.1 µM (top of the series)
In the case of COc1ccc(CCN(C)C(=O)c2cnc(C)cn2)cc1OC, the “activity, positive = re-replication” value is reported as inactive: -1.27%.
For Cc1ccc(NC(=O)CSc2nc(NS(=O)(=O)c3ccc(C)cc3)cc(=O)[nH]2)cc1, the Potency was inconclusive [activator, partial curve, poor fit].
With COc1ccc(CNC(=O)COc2cc3c(c4oc(=O)cc(C)c24)CCC(C)(C)O3)cc1 the Potency was inconclusive [activator, full curve, poor fit].
For O=C(Nc1cccc(Cl)c1)Nc1ccc2c(c1)OCO2, the Potency was inconclusive [activator, single point].
In the case of C(=N\Nc1ccccc1)/c1ccc(N2CCOCC2)cc1, the “activity, positive = re-replication” value is reported as inactive: 1.01%.
For CCOc1ccc(NC(=O)CCCN2C(=S)NC(C)(C)CC2C)cc1 (stereo not given), the “activity, positive = re-replication” value was inactive: 1.16%.
In the case of O=C(CN1CCCCCC1)Nc1cc(C(F)(F)F)ccc1Cl, the “activity, positive = re-replication” value is reported as inactive: -3.14%.
For CC(=O)N(c1ccccc1C)S(=O)(=O)c1ccc(Cl)cc1, the Potency was inconclusive [activator, full curve, poor fit].
For Cc1cc(NC(=O)NC(=O)c2ccccc2NC(=O)CN(C)C)ccc1Oc1ncc(Br)cn1, the Potency was active: 14.6 µM.
With OCCC1CN(Cc2ccccc2O)CCN1CCCc1ccccc1 (stereo not given) the “activity, positive = re-replication” value was inactive: 6.72%.
With O=C(/C=C/c1ccccc1)Nc1cccc(C(=O)N2CCCCC2)c1 the “activity, positive = re-replication” value was inactive: 0.155%.
For CC1=Nc2cc(C(=O)NCCN3CCOCC3)ccc2Sc2c(C)ccc(C)c21, the Potency was inconclusive [activator, partial curve, poor fit].
In the case of Cc1cccc(C(=O)NCC(C)NC(=O)c2cccc(C)c2)c1 (stereo not given), the Potency is reported as inconclusive [activator, single point].
In the case of COc1ccccc1NC(=O)/C(=C/c1cccc([N+](=O)[O-])c1)c1ccccc1, the Potency is reported as inconclusive [activator, partial curve].
In the case of COc1cc(/C=N/NC(=O)CCn2cnc(-c3ccccc3)c2-c2ccccc2)ccc1O, the Potency is reported as inconclusive [activator, single point].
In the case of CCc1ccc(C(=O)Cc2cc3cccc(OC)c3oc2=O)cc1, the “activity, positive = re-replication” value is reported as inactive: -16.7%.
With Cc1nn(Cc2ccc(Cl)cc2Cl)c(C)c1NC(=O)NC12CC3CC(CC(C3)C1)C2 the Potency was inconclusive [activator, partial curve].
In the case of CCOC(=O)N1CCN(C(=O)CSc2nc3c(cnn3-c3ccccc3)c(=O)[nH]2)CC1, the “activity, positive = re-replication” value is reported as inactive: -0.446%.
With Cc1cc2c(cc1C)C(c1ccccc1Br)CC(=O)N2 (stereo not given) the Potency was inconclusive [activator, partial curve, poor fit].
With COc1c(C(=O)Nc2ccccc2N2CCOCC2)cc2ccccc2c1Br the Potency was inconclusive [activator, single point].
For CCCOC(=O)Nc1nc2ccccc2o1, the “activity, positive = re-replication” value was inactive: -0.974%.
In the case of CCN(CC)c1ccc(-n2cc3c(=O)n(C)c(=O)n(C)c3c2)cc1, the Potency is reported as inconclusive [activator, partial curve, poor fit].
For Cc1cccc(N2CCN(C(=O)C3CCN(c4ncnc5c4nc4n5CCCCC4)CC3)CC2)c1C, the Potency was inconclusive [activator, single point].
In the case of CC(C)Cn1c(N)c(C(=O)COC(=O)/C=C/c2ccccc2)c(=O)n(C)c1=O, the “activity, positive = re-replication” value is reported as inactive: -3.53%.
With O=C(CSc1nnc(C2CC2)n1Cc1ccccc1)N1CCNC1=O the “activity, positive = re-replication” value was inactive: -5.09%.
For C#CCOCCOCCOCCNc1nc(N2CCN(C(=O)CCCCCCCCCCNC(=O)[C@H](CCCCN)n3cc(C)nn3)CC2)nc(N2CCN(C(=O)CCCCCCCCCCNC(=O)[C@H](CCCCN)n3cc(CCCC(=O)O)nn3)CC2)n1, the “activity, positive = re-replication” value was inactive: 7.7%.
With CNC(=O)/C(C#N)=C/c1c(N2CC(C)OC(C)C2)nc2ccccn2c1=O (stereo not given) the Potency was active: 7.31 µM.
In the case of CN1/C(=C/C(=O)C2CCC2)Sc2ccccc21, the Potency is reported as inconclusive [activator, full curve, poor fit].
For CC(C)c1ccc(Nc2nc(NCc3ccco3)nc(N3CCOCC3)n2)cc1, the Potency was inconclusive [activator, single point].
In the case of Cc1oc(-c2ccccc2F)nc1CS(=O)(=O)CC(=O)NC1CCCC(C)C1C (stereo not given), the Potency is reported as inconclusive [activator, single point].
In the case of Cc1cccc(C(=O)NCC(=O)N2CCN(S(=O)(=O)c3cc(C)ccc3C)CC2)c1, the Potency is reported as inconclusive [activator, single point].
For Cc1cc(C)n(C(=O)COc2ccc(Cl)cc2Cl)n1, the Potency was inconclusive [activator, single point].
With CN1C(=O)C(O)(CC(=O)c2ccncc2)c2ccccc21 (stereo not given) the Potency was inconclusive [activator, single point].
In the case of Cc1occc1C(=O)N1CCCc2ccccc21, the Potency is reported as inconclusive [activator, partial curve, poor fit].
For CCC(CNc1cc(OC)cc2cccnc12)NC1CCCCC1 (stereo not given), the Potency was inconclusive [activator, single point].
For CCOC(=O)[C@H]1[C@H]2COc3ccc(Br)cc3[C@@H]2N2C(=O)CN(Cc3ccc(F)cc3)C(=O)[C@@]12C, the Potency was inconclusive [activator, single point].
For CC1(C)Cc2c(sc(NC(=O)c3ccc(C(=O)c4ccccc4)cc3)c2C(N)=O)C(C)(C)N1, the Potency was active: 23.1 µM.
In the case of O=C(Nc1ccc(Cl)cc1)Nc1ccccc1NS(=O)(=O)c1cccs1, the Potency is reported as active: 18.4 µM.
In the case of CCc1cc(C(=O)N2CCN(c3ncccn3)CC2)sc1C, the Potency is reported as inconclusive [activator, partial curve].
For CC(C)(C)c1ccc(-c2nc(C#N)c(NCCCn3ccnc3)o2)cc1, the “activity, positive = re-replication” value was inactive: -7.42%.
In the case of O=C1N/C(=C/c2ccsc2)C(=O)N1c1ccccc1, the “activity, positive = re-replication” value is reported as inactive: 3.72%.
For CC(C)NC(=S)N/N=C1\CCCCc2ccccc21, the “activity, positive = re-replication” value was inactive: 23.4%.
For CO/N=C/c1ccc(N2CCN(C(=O)c3cccc(Cl)c3)CC2)c([N+](=O)[O-])c1, the Potency was inconclusive [activator, partial curve, poor fit].
With Cc1cc(C)nc(Nc2nc(C)c3cc4c(cc3n2)OCO4)n1 the “activity, positive = re-replication” value was inactive: 6.79%.
With Cc1ccccc1NC(=O)/C(=C/c1ccccc1)c1ccccc1 the Potency was inconclusive [activator, single point].
